Test results: PubChem BioAssay AID1347417 (National Center for Advancing Translational Sciences (NCATS), 2020)
Out of some 120,000 compounds screened, about 5,300 (4.4%) were called active. This list was built around the results that the source calls inconclusive (neither active nor inactive); the mix of calls is not that of the screen. Calls follow the shape of the dose curve; as a rule, active = well fitted inhibition curve with a large enough effect; inconclusive = small, poorly fitted or top-dose-only effect; inactive = no such curve, though single readings can be large or run the other way. A potency beside an inconclusive call is a rough fit, not a confirmed value.

Assay: qHTS Primary assay for Inhibitors of Plasmodium falciparum Dd2 growth in vitro; also: nearly all actives have a fitted effect of over 65% in size;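 as to activity, negative = inhibition: plate controls were DMSO vehicle for no effect and reference drug for full effect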
Details: P. falciparum Dd2 growth, SYBR Green, 72 h; activity, negative = inhibition: at 28.9 µM (top of the series) unless noted; series mostly up to 28.9 µM
How it was run: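 Readout: SYBR Green fluorescence, 485 nm excitation, 535 nm emission, after ~16 h lysis at 37C. Before that, Dd2-infected red cells (2.5% hematocrit) grew 72 h with compound, 29 uM top final concentration.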
Potency is read from the fitted curve at half-maximal effect; tags tell the direction and shape of the fitted curve.

Structure (SMILES)	Potency	outcome	activity, negative = inhibition
Cn1nc(C(=O)Nc2ccc(F)c(Cl)c2)c2c1-c1ccccc1S(=O)(=O)C2	active: 8.91 µM	–	–
C=CCCC(CN1CCCOCC1)Oc1nccc(N(C)CC)n1 (configuration not stated)	inconclusive: 1.58 µM [inhibitor, full curve, poor fit]	–	–
CCCc1ccc(S(=O)(=O)NC2CCN(c3ccc(=O)n(CC4CC4)n3)CC2)cc1	–	inactive	–
O=C1CCN(C(=O)c2cccs2)CCCCCCN1	–	–	inactive: 4.91%
Clc1ccc(-c2noc3ncnc(NCCc4ccccc4)c23)cc1	inconclusive: 10 µM [inhibitor, partial curve, poor fit]	–	–
Cn1c(CCNC(=O)CCc2ccc3c(c2)CN(C(=O)C2CC2)CCO3)nc2ccccc21	inconclusive: 12.6 µM [inhibitor, single point]	–	–
CCc1ccc(S(=O)(=O)N2CC(C(=O)NC3CCCCC3)C3(CCOCC3)C2)cc1 (configuration not stated)	inconclusive: 2.82 µM [inhibitor, single point]	–	–
CCOC(=O)C1CCN(C(c2cccc(F)c2)c2c(O)cc(C)n(CCOC)c2=O)CC1 (configuration not stated)	–	–	inactive: 122%
CCC(C(=O)N1CCN(c2cc(-c3cccs3)[nH]n2)CC1)c1ccccc1 (configuration not stated)	inconclusive: 0.891 µM [inhibitor, full curve, poor fit]	–	–
Fc1ccc(-c2noc3ncnc(NCc4ccc(Cl)cc4)c23)cc1	inconclusive: 17.8 µM [inhibitor, single point]	–	–
COc1ccc(-c2nnc(C[C@@H]3C[C@@H](C(C)C)[C@H](CNCc4ccco4)C=C3C)o2)cc1	inconclusive: 3.98 µM [inhibitor, partial curve, poor fit]	–	–
CC(=O)Nc1ccc(CN2CC(N(C)c3ccccc3C)C2)cc1	inconclusive: 2 µM [inhibitor, full curve]	–	–
O=C(CCn1c(=O)c2cccn2c2cccnc21)NCc1ccc(F)cc1	inconclusive: 0.0089 µM [inhibitor, full curve, poor fit]	–	–
CCOCCn1c(=O)[nH]c2cc(C(=O)NCCc3ncccc3C)ccc21	–	–	inactive: -27.9%
O=C(CCc1ccccc1)NCCC1CCN(C(=O)Nc2cc(F)cc(F)c2)CC1	–	inactive	–
CN(Cc1ccccc1)C(=O)c1ccc2c(c1)N(Cc1ccccc1Cl)C(=O)c1ccccc1S2	inconclusive: 17.8 µM [inhibitor, single point]	–	–
CCN1C(=O)c2ccccc2S(=O)c2ccc(C(=O)N3CCN(c4cc(Cl)ccc4C)CC3)cc21 (configuration not stated)	active: 8.91 µM	–	–
O=C1Cc2c(-c3ccc(Oc4ccccc4)cc3)n[nH]c2CN1CCc1ccncc1	active: 11.2 µM	–	–
Cc1ccccc1CN1CCC(CNC(=O)c2c(C)oc3ncnc(N4CCCCC4)c23)CC1	inconclusive: 17.8 µM [inhibitor, single point]	–	–
CCC(Sc1nc(-c2ccccc2F)nc2c1Cc1c(CO)cnc(C)c1O2)C(=O)Nc1cc(C)ccc1C (configuration not stated)	inconclusive: 7.94 µM [inhibitor, partial curve, poor fit]	–	–
COCC(=O)NC[C@H]1O[C@H](Cc2cc(-c3ccc(F)cc3)on2)CC[C@@H]1O	active: 14.1 µM	–	–

Structure (SMILES)	Potency	outcome	activity, negative = inhibition
CC(=O)N1CCCC(c2nn(C)c(=O)n2C2CCCC2)C1 (configuration not stated)	inconclusive: 1.78 µM [inhibitor, full curve, poor fit]	–	–
CCCn1c(C)cnc1C1CCN(C(=O)NCC)C1 (configuration not stated)	–	–	inactive: 15.3%
CC(C)(C)OC(=O)N1CC(Nc2cccc(C(F)(F)F)c2)C1	inconclusive: 10 µM [inhibitor, single point]	–	–
Cc1cc(=O)n(CC(=O)Nc2ccc(F)c(Cl)c2)c(N2CCOCC2)n1	inconclusive: 6.31 µM [inhibitor, partial curve]	–	–
O=C(NCCc1noc(C2CC2)n1)c1cccs1	–	–	inactive: 38.6%
CCOc1ccc(-c2cc3c(=O)n(CCNC(=O)Cc4cccs4)ccn3n2)cc1	–	–	inactive: -28.4%
COc1cccc(C(=O)N2CCC(N3C[C@H](O)C[C@H]3C(=O)Nc3ccc(F)cc3)CC2)c1	inconclusive: 6.31 µM [inhibitor, partial curve]	–	–
COc1cncc(Nc2ncc(-c3ccccc3OC)c3c2OCC3)c1	inconclusive: 5.62 µM [inhibitor, single point]	–	–
COc1ccc(C(=O)NC2CCN(c3cnn(C)c(=O)c3)CC2)cc1	–	–	inactive: -0.606%
COc1ccc(-c2cc(C(C)=O)c(C)n2CCC(=O)Nc2cc(Cl)ccc2C)cc1	inconclusive: 17.8 µM [inhibitor, single point]	–	–
O=C(NC1CCCN(c2cc(-c3ccccc3)[nH]n2)C1)c1ccncc1 (configuration not stated)	inconclusive: 3.98 µM [inhibitor, single point]	–	–
CN(Cc1nc(-c2ccccc2)no1)CC1(O)CNCCOC1 (configuration not stated)	inconclusive: 2.51 µM [inhibitor, single point]	–	–
O=C1CC(C(=O)O)C2(CCN(C(=O)C3(Cn4ccnc4)CC3)CC2)N1 (configuration not stated)	–	–	inactive: 5.85%
CCOc1ccccc1C(=O)N1CCC[C@H]1c1nc(-c2ccc(F)cc2)no1	inconclusive: 3.98 µM [inhibitor, single point]	–	–
CCOC(=O)c1cccc(NC(=O)CCn2c(-c3ccc(F)cc3)cc(C(=O)OCC)c2C)c1	active: 0.1 µM	–	–
O=C(Cc1ccsc1)N1CCC2(CC1)CC(N(Cc1ccc(F)cc1)C1CC1)CCO2 (configuration not stated)	inconclusive: 5.01 µM [inhibitor, partial curve, poor fit]	–	–
COc1ccc(-c2cn(C[C@H]3CC4CCN3C[C@@H]4C(=O)NCc3ccc(F)cc3)nn2)cc1 (some centres not stated)	inconclusive: 3.55 µM [inhibitor, full curve, poor fit]	–	–
Cc1ccc([S+](=O)([O-])c2nnn3c2nc(N2CCC(F)CC2)c2ccccc23)cc1	–	–	inactive: -29.9%
COc1ccc(NC(=O)CSC2=Nc3ccccc3C3=NC(CCC(=O)NC4CCCCC4)C(=O)N23)cc1 (configuration not stated)	–	–	inactive: 43.8%
CC1=C[C@@H](CNCc2ccncc2)[C@H](C(C)C)C[C@H]1Cc1nnc(-c2ccccc2F)o1	inconclusive: 3.55 µM [inhibitor, partial curve, poor fit]	–	–
Cn1nc(C2CCCC2)cc1[C@H]1CN2CC[C@H]1C[C@@H]2CNC(=O)Nc1ccccc1	inconclusive: 11.2 µM [inhibitor, partial curve, poor fit]	–	–
